Results published in PubChem BioAssay AID485294 (National Center for Advancing Translational Sciences (NCATS), 2010).
Out of some 370,000 compounds screened, about 150 (0.041%) were called active. This list was built around the results that the source calls inconclusive (neither active nor inactive); the mix of calls is not that of the screen. Calls come from the whole dose curve; as a rule, active = well fitted inhibition curve with a large enough effect; inconclusive = small, poorly fitted or top-dose-only effect; inactive = flat fitted curve, though single readings scatter. No potency is given beside an inconclusive call; the fits are too rough.

Target: Beta-lactamase (Escherichia coli (strain K12)) (UniProt P00811)
Experiment: qHTS Inhibitors of AmpC Beta-Lactamase (assay with detergent); note: nearly all actives have a fitted effect of over 25% in size;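 for activity change, negative = inhibition: 0% = no-compound wells and -100% = no-enzyme wells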
Conditions: AmpC hydrolysis of nitrocefin, absorbance 480 nm, 0.01% Triton; activity change, negative = inhibition: at 114 µM (top of the series)
Summary of the method: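 AmpC (5.3 nM in the dispensed reagent) in 20 mM phosphate pH 7.0 with 0.01% (detergent screen) or 0.0001% Triton X-100 was preincubated with compounds for 15 min at room temperature. Nitrocefin was then added from an 800 uM solution, and hydrolysis was followed at 480 nm.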
Potency is the fitted concentration of half-maximal effect; tags give direction and shape of the fitted curve.

UniProt P00811, sequence (P00811 whole entry, looked up): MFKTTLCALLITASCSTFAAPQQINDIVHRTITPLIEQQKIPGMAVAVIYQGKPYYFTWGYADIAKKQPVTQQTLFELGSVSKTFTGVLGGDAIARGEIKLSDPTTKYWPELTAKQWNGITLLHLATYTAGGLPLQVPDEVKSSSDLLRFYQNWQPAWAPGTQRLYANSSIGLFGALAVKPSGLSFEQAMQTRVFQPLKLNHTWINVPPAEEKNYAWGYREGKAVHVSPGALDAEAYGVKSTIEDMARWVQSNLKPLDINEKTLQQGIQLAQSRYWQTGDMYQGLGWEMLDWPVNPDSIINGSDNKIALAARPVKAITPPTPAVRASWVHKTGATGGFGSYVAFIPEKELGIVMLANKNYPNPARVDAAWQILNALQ

SMILES	activity change, negative = inhibition	Potency
Cc1ccc(SCCOCCN2CCOCC2)cc1	inactive: -8.97%	–
CCCn1nc(C(=O)OCc2nc(N)nc(Nc3ccccc3C)n2)c2ccccc2c1=O	–	inconclusive [inhibitor, full curve, poor fit]
CCc1nc(N[C@@H](Cc2c[nH]c3ccccc23)C(=O)O)c2oc3ccccc3c2n1	–	inconclusive [inhibitor, full curve]
Cc1ccc(-c2noc(CCC(=O)NCc3ccc4c(c3)OCO4)n2)cc1	–	inconclusive [inhibitor, single point]
COC(=O)c1cc(S(=O)(=O)NCCN2CCOCC2)cn1C	–	inconclusive [inhibitor, full curve, poor fit]
COc1ccc(C(=O)Nc2ccc3c(c2)C(=O)NC3=O)cc1	–	inconclusive [inhibitor, partial curve, poor fit]
CCOC(=O)C(O)(CC(=O)Nc1cc(F)ccc1C)C(F)(F)F (stereo not given)	–	inconclusive [inhibitor, single point]
Cc1ccccc1C(=O)NC1(C(F)(F)F)N=C(c2ccccc2)N(C2CCCCC2)C1=O (stereo not given)	inactive: -1.06%	–
O=C(c1ccccc1)N1CCN(C(=O)c2ccc3c(c2)OCO3)CC1	–	inconclusive [inhibitor, single point]
O=C(Nc1ccc(N2CCOCC2)cc1)C1CCCCC1	inactive: 0.761%	–
Cc1c(C#N)c(SCC(N)=O)nc2c1CCCC2	–	inconclusive [inhibitor, full curve, poor fit]
CCOC(=O)c1oc2ccc(S(=O)(=O)n3nc(-c4cc(OC)c(OC)c(OC)c4)cc3N)cc2c1C	–	inactive
CCOc1ccc2nnc(-c3ccc(Br)cc3)n2n1	–	inconclusive [inhibitor, single point]
O=C(COC(=O)CNC(=O)c1ccccc1)NCCc1ccccc1	inactive: 0.898%	–
Cc1ccc(NC(=O)C2CC(=O)N(C(C)C)C2)cc1C (stereo not given)	–	inconclusive [inhibitor, full curve]
O=S(=O)(Nc1ccc(O)c(Sc2nc3ccccc3s2)c1)c1ccc(F)cc1	–	inconclusive [inhibitor, partial curve]
COc1cccc(C(=O)n2cnnc2N)c1OC	–	inconclusive [inhibitor, full curve, poor fit]
Clc1ncccc1-c1nc2ccccc2n1Cc1ccccc1	–	inconclusive [inhibitor, full curve, poor fit]
C/C(=N/Oc1nc(C)cc(C)n1)c1ccc(F)cc1	inactive: -13.7%	–
CN(C)CCCNC(=S)N1CCN(c2nc(-c3ccccc3)cs2)CC1	–	inconclusive [inhibitor, partial curve]
Cn1c(C(=O)N2CCCC(Nc3ccc(F)cc3)C2)cc2ccccc21 (stereo not given)	–	inconclusive [inhibitor, full curve, poor fit]
CN1CCN(C(=S)c2ccc([N+](=O)[O-])cc2)CC1	–	inconclusive [inhibitor, single point]
CCN(c1ccccc1)c1ccc2cc(S(=O)(=O)N3CCCC3)ccc2n1	inactive: 5.22%	–

SMILES	activity change, negative = inhibition	Potency
O=[N+]([O-])c1ccc(N2CCN(CC3CCCCC3)CC2)cc1	–	inconclusive [inhibitor, full curve, poor fit]
CCOC(=O)C1=C(CSc2nccn2C)NC(=O)NC1c1cc(C)ccc1C (stereo not given)	–	inconclusive [inhibitor, full curve, poor fit]
O=C(O)c1ccc2nc(-c3cc4cccc(O)c4oc3=O)[nH]c2c1	–	inconclusive [inhibitor, full curve]
CCn1c(-c2ccco2)nc2ccccc21	inactive: -7.98%	–
CC1(C)NC(=O)N(CC(O)COc2ccccc2C(=O)Nc2ccccc2)C1=O (stereo not given)	–	inconclusive [inhibitor, full curve]
COc1ccc(NC(=O)CSc2nnc(CNC(=O)c3ccco3)o2)c(OC)c1	–	inconclusive [inhibitor, single point]
CNC(=O)c1nn(-c2ccc(C)cc2)ccc1=O	inactive: 0.452%	–
COc1ccccc1CCNC(=O)C1CCN(c2nnc(-n3cccc3CNc3ccc(C)cc3)s2)CC1	inactive: -14.8%	–
Oc1oc(-c2ccc(Br)cc2)nc1C=Nc1ccc(Br)cn1	inactive: 2.13%	–
O=C(O)C1CCCCC1C(=O)OCCCCOC(=O)C1CCCCC1C(=O)O (stereo not given)	–	inconclusive [inhibitor, full curve]
CC(NC(=O)c1ccccc1)C(=O)N/N=C/c1cccc([N+](=O)[O-])c1 (stereo not given)	inactive: -13.7%	–
Cc1cc(-c2nnc(CCC(=O)NCc3ccc(OC(F)(F)F)cc3)o2)no1	inactive: 1.32%	–
O=C(Cc1ccccc1)N1CCN(C(=O)c2ccco2)CC1	–	inconclusive [inhibitor, full curve, poor fit]
CCCCc1ccc(/C(C)=N/NC(=O)C2CCCC2)cc1	–	inconclusive [inhibitor, full curve]
CN(C(=O)c1ccco1)c1nc(-c2ccc(Cl)cc2)cs1	–	inconclusive [inhibitor, partial curve, poor fit]
Cc1ccc(S(=O)(=O)N2CCN(C(=O)c3ccc(OCc4c(C)noc4C)cc3)CC2)cc1	–	inconclusive [inhibitor, full curve, poor fit]
Cc1ccc(-c2cc(-c3nnc(SCC(=O)N(C)CCC#N)n3N)c3ccccc3n2)cc1	–	inconclusive [inhibitor, full curve, poor fit]
O=C(O)Cc1ccc(NC2(c3ccccc3)C(=O)c3ccccc3C2=O)cc1	inactive: 19%	–
CSc1ccc(CCNC(=O)c2ccc(-c3nc(COc4ccc(C)cc4)c(C)o3)cc2)cc1	inactive: 10.3%	–
CCOC(=O)CSc1nc2ccccc2c(=O)n1-c1cccc(C)c1	–	inconclusive [inhibitor, single point]
CCOc1ccc(NC(=O)COC(=O)C23CC4CC(CC(C4)C2)C3)c([N+](=O)[O-])c1	–	inconclusive [inhibitor, partial curve, poor fit]
CCOC(=O)c1nnc(-c2ccccc2)nc1NCc1ccc(Cl)cc1	–	inconclusive [inhibitor, full curve]
